How the values were obtained:
[1] = target: T1, recombinant human ROR1-His (Homo sapiens, UniProt Q01973); test: Octet measurement of affinity of anti-ROR1 IgG antibody to ROR1; type: binding; conditions: 1:1 fitting, 30° C.
T1 construct: purchased Sino Biological 13968-H08H
Protocol: A 96-well black microplate (greiner bio one) was mounted on a biosensor tray case, and 200 ? 10×KB or DW was added to each of 8 wells. Then Anti Penta His biosensors or 8 AR2G biosensors (ForteBio, USA) were inserted to hydrate for 10 minutes. 600 ? of the assay samples were diluted 2-fold or 3-fold to the appropriate assay concentrations, using 1×KB or 10×KB to 30 to 0.021 nM. To immobilize the antigen, recombinant human ROR1-His (Sino Biological, 13968-H08H) was diluted to 1 ? /ML with 10×KB or Sodium Acetate pH5 buffer. Immobilization was fixed at a threshold of 0.3 nm in the loading step. The association assay was carried out for 3 to 10 minutes, and the dissociation assay was carried out for 20 minutes. According to the Octet program template, the buffer was placed in a new 96-well black microplate according to order. As Baseline1, 200 ? 10×KB or DW was placed. Then 200 ? each of 1 ? /mL of the antigen to be loaded, the ROR1-HIS protein, was added. As Baseline2, 200 ? 10×KB or 1×KB was placed. Then to each well 30 to 0.021 nM of the diluted antibody and 200 ? each of 10×KB buffer or 1×KB corresponding to a reference blank was added. The temperature of the test plate was fixed at 30° C. After all of the samples were introduced, the equipment was started, and after the assay was completed, results were uploaded to the Octet Analysis 90 software, with KD values analyzed through 1:1 fitting. By obtaining KD values through the Octet assay method, it was confirmed that the anti-ROR1 antibody had strong binding potential to ROR1 antigen.

[2] = test system: ROR1 over-expressing cell line JeKo-1; test: Induction of auto-active cell death (Annexin V / PI, FACS) in JeKo-1; type: cell-based, human; conditions: for induction of auto-active cell death (dyeing by Annexin V and PI): antibody cross-linked (multimerized) by anti-human Fc antibody; for increase in dyeing by the auto-active cell death marker Annexin V over the control: antibody cross-linked by anti-human Fc antibody, 24 hours
Protocol: (§1) To this end, the ROR1 over-expressing cell line JeKo-1 was centrifuged to remove the serum-containing medium. After washing once with PBS, 5×10^6 cells were seeded in each well of a 6-well plate using serum-free RPMI1640 medium. 100 ? /mL of the anti-ROR1 antibody according to the present invention and 300 ? /ml of anti-human Fc antibody (Thermo Fisher, 31125) were placed at a 1:1 ratio in an equivalent tube, an reacted for 10 minutes at room temperature so that the anti-ROR1 antibody was cross-linked by the anti-human Fc antibody. 150 ? each of the mixtures was placed in the wells containing 15 ml medium so that the final amount of antibody treated was 10 ? /mL for ROR1 antibody, and 30 ? /mL for anti-human Fc antibody, then reacted by culturing for 24 hours at 5% CO2 and 37° C.
(§2) Next, to confirm whether or not whether or not the ROR1 antibody alone and the cross-linked anti-ROR1 antibody had the capacity to induce auto-active cell death, the cells of each well were collected and washed once with PBS. Thereafter, each group was reacted with the auto-active cell death marker Annexin V and the cell death marker PI, and the degree to which the groups were dyed was observed through FACS analysis.

[3] = target: T2, cell surface-expressed ROR1 (JeKo-1 cell line) (Homo sapiens, UniProt Q01973); test: Monoclonal phage antibody (scFv) flow cytometry on JeKo-1; type: binding; conditions: monoclonal scFv supernatant
T2 construct: reacted with a cell line (JeKo-1) overexpressing ROR1; endogenous in cells; host or cells: JeKo-1
Protocol: Next, flow cytometry was used to screen clones binding to cell lines expressing ROR1. Specifically, 100 ? of the monoclonal scFv supernatant was reacted with a cell line (JeKo-1) overexpressing ROR1, then washed two times with PBS. After reacting with anti-HA-FITC antibody (Sigma, H7411) at 4° C. for 30 minutes, and washing twice with PBS then suspending in 200 ? PBS, a FACSCalibur flow cytometer (BD Bioscience) was used to screen clones binding to the JeKo-1 cell line (FIG. 2)

[4] = test system: human mantle cell lymphoma cell line JeKo-1; test: Cancer growth suppression efficacy of anti-ROR1 IgG antibody in mouse tumor xenograft model; type: in vivo; conditions: Day 16; 10 mg/kg peritoneally twice a week, 5 administrations; JeKo-1 xenograft in SCID mice
Protocol: Human cancer xenograft mice were prepared by transplanting 1×10^7 cells/head of the ROR1-expressing human mantle cell lymphoma cell line JeKo-1 to severe combined immunodeficiency mice (SCID). After xenograft, when tumor size reached 170 mm^3 on average (Day 1), the mice were divided into groups, and 5 types of anti-ROR-1 antibody were peritoneally injected into the mice using a 1 mL syringe twice a week at 10 mg/kg for a total of 5 administrations (Days 1, 4, 7, 10 and 14). The negative control group was peritoneally administered 10 mg/kg each of human IgG1 (InVivoPlus human IgG1 isotype control, BioXCell, BP0297) having a structure similar to that of ROR-1 antibody twice a week for a total of 5 administrations. The size of the tumors grafted to the mice and the weight of the mice were measured immediately before initial administration (Day 1), immediately before administration on each administration date thereafter, and at two days after final administration (Day 16).

[5] = target: T3, recombinant human ROR1-Fc (Homo sapiens, UniProt Q01973); test: Monoclonal phage antibody (scFv) screening ELISA on ROR1-Fc; type: binding; conditions: monoclonal phage scFv supernatant
T3 construct: made in house; host or cells: HEK 293E
Protocol: Thereafter, the ELISA method was used as follows to select clones expressing monoclonal soluble scFv binding to ROR1-Fc antigen (Steinberger Rader and Barbas III 2000 Phage display vectors In: Phage Display Laboratory Manual 1sted Cold Spring Harbor Laboratory Press NY USA pp 119-1112). Specifically, 100 ng per well of recombinant human ROR1-Fc prepared in Embodiment 1-1 or FBMA-Fc was placed in a 96-well microtiter plate (Nunc-Immuno Plate, NUNC, USA), which was coated overnight at 4° C. BCMA-Fc is the protein used as a negative control, a recombinant protein where the extracellular domain of human BCMA protein is linked to human Fc. 200 μL each of 3% BSA was placed in each well, and blocked for 2 hours at 37° C.
The monoclonal phage supernatant was prepared by mixing 1:1 with 3% BSA, and 100 μL each of this mixture was loaded into the wells and reacted for 2 hours at 37° C. After washing 5 times with 300 μL PBST, anti-HA HRP binding antibody was added, reacted for 1 hour at 37° C., then washed 5 times with PBST. 100 μL TMB (Tetramethylbenzidine, Sigma, T0440) was added for color development, and then 50 μL 1N H2SO4 was added to stop the reaction. Absorbance was measured at 450 nm and 650 nm, and clones where the absorbance at 450 nm and 650 nm was 10 or higher when coated with 1 ? /mL ROR1 were screened (FIG. 1)

[6] = test system: ROR1 non-expressing cell line U266; test: Induction of auto-active cell death (Annexin V / PI, FACS) in U266; type: cell-based; conditions: cross-linked antibody
Protocol: as §1, §2
In particular, in terms of dyeing by the auto-active cell death marker Annexin V, there was a 23% increase for the C2E3 clone and a 10% increase for the AB4 clone over the control. […]

T1 sequence (Q01973 30-406 limits assumed): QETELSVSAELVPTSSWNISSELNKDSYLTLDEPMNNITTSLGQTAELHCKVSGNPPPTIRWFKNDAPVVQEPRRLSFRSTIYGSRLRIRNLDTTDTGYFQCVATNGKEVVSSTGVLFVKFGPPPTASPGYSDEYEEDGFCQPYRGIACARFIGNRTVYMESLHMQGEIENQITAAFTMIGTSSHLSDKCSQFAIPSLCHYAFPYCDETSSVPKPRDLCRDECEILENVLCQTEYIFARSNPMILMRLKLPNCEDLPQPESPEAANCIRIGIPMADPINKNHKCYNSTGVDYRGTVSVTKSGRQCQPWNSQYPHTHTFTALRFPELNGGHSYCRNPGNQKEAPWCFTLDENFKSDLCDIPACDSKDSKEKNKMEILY
T3 sequence (Q01973 30-406): as the sequence (Q01973 30-406 limits assumed) above
T2 sequence (Q01973 30-937): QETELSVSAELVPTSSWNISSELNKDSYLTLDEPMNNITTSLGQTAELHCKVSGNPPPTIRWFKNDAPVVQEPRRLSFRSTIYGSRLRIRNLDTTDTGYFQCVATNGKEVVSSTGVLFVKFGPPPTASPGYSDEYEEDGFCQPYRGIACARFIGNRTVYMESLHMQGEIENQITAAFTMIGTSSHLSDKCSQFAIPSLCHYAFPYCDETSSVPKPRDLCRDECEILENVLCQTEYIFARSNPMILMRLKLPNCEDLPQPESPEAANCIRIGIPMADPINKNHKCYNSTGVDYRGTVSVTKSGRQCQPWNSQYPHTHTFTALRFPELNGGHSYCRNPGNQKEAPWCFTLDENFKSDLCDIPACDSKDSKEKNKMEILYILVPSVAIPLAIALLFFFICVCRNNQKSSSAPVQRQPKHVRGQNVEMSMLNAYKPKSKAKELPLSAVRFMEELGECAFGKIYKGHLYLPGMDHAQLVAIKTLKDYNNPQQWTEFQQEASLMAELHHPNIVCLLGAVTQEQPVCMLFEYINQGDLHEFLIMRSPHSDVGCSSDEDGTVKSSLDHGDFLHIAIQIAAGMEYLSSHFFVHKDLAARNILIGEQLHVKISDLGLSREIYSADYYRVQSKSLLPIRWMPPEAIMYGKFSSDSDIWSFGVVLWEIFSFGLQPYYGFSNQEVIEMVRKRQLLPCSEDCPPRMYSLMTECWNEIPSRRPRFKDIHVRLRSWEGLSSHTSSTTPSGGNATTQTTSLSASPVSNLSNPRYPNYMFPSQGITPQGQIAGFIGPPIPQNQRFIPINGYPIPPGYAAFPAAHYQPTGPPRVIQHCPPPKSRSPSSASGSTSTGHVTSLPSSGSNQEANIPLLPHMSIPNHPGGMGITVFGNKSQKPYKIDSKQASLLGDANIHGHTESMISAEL

Molecule	koff [1] [s⁻¹]	kon [1] [M⁻¹ s⁻¹]	induction of auto-active cell death (dyeing by Annexin V and PI) [2]	increase in dyeing by the auto-active cell death marker Annexin V over the control [2] [%]	binding to cell lines expressing ROR1 [3]	% tumor growth inhibition (% TGI) compared to the human IgG1 antibody (HuIgG1) negative control [4] [%]	binding to recombinant human ROR1 protein [5]	induction of auto-active cell death (dyeing by Annexin V and PI) [6]
AB4: anti-ROR1 antibody clone, VH SEQ ID NO 43, VL SEQ ID NO 51; IgG chains SEQ ID NOs 59 and 67 (antibody) heavy: EVQLLESGGGLVQPGGSLRLSCAASGFTFSSYDMSWVRQAPGKGLEWVSWISPDSGSIYYADSVKGRFTISRDNSKNTLYLQMNSLRAEDTAVYYCARPTGRFDYWGQGTLVTVSS[human IgG1 constant region not printed] light: QSVLTQPPSASGTPGQRVTISCSGSSSNIGNNNVNWYQQLPGTAPKLLIYYDNKRPSGVPDRFSGSKSGTSASLAISGLRSEDEADYYCGTWDASLSGYVFGGGTKLTVLGQPKAAPSVTLFPPSSEELQANKATLVCLISDFYPGAVTVAWKADSSPVKAGVETTTPSKQSNNKYAASSYLSLTPEQWKSHRSYSCQVTHEGSTVEKTVAPAECS	0.000116	1.81e+06	increased over the control group	10	binding	361	binding	
C2E3: anti-ROR1 antibody clone, VH SEQ ID NO 48, VL SEQ ID NO 56; IgG chains SEQ ID NOs 64 and 72 (antibody) heavy: EVQLLESGGGLVQPGGSLRLSCAASGFTFSNYAMSWVRQAPGKGLEWVSSISHNSGSTYYADSVKGRFTISRDNSKNTLYLQMNSLRAEDTAVYYCAKFISARKSLGRSYSNGMDVWGQGTLVTVSS[human IgG1 constant region not printed] light: QSVLTQPPSASGTPGQRVTISCTGSSSNIGSNDVTWYQQLPGTAPKLLIYADSKRPSGVPDRFSGSKSGTSASLAISGLRSEDEADYYCGTWDYSLSGYVFGGGTKLTVLGQPKAAPSVTLFPPSSEELQANKATLVCLISDFYPGAVTVAWKADSSPVKAGVETTTPSKQSNNKYAASSYLSLTPEQWKSHRSYSCQVTHEGSTVEKTVAPAECS			increased over the control group	23	binding	360	binding	not able to induce auto-active cell death
BA6: anti-ROR1 antibody clone, VH SEQ ID NO 46, VL SEQ ID NO 54; IgG chains SEQ ID NOs 62 and 70 (antibody) heavy: EVQLLESGGGLVQPGGSLRLSCAASGFTFSNYDMSWVRQAPGKGLEWVSAIYHSGSSKYYADSVKGRFTISRDNSKNTLYLQMNSLRAEDTAVYYCARGGNGAWDTGFDYWGQGTLVTVSS[human IgG1 constant region not printed] light: QSVLTQPPSASGTPGQRVTISCSGSSSNIGSNDVSWYQQLPGTAPKLLIYYDNNRPSGVPDRFSGSKSGTSASLAISGLRSEDEADYYCGAWDDSLSGYVFGGGTKLTVLGQPKAAPSVTLFPPSSEELQANKATLVCLISDFYPGAVTVAWKADSSPVKAGVETTTPSKQSNNKYAASSYLSLTPEQWKSHRSYSCQVTHEGSTVEKTVAPAECS	0.000231	2.47e+06	did not induce auto-active cell death		binding	317	binding	

From US11707533B2, “Antibody-drug conjugate comprising antibody against human ROR1 and use for the same” (LegoChem Biosciences, Inc., priority 2019, dated 2023)
